# Where “and” joins values, the source holds several entries; their conditions need not be identical. Equal values may be shown once. Screen size: about 410,000 compounds; about 6,400 (1.6%) were called active. Inconclusive means that the source gave no clear call. Such entries were picked first, then a sample of the others. Calls follow the shape of the dose curve; as a rule, active = well fitted inhibition curve with a large enough effect; inconclusive = small, poorly fitted or top-dose-only effect; inactive = no such curve, though single readings can be large or run the other way. Potencies beside an inconclusive call are fits to weak or partial responses and may not hold up.
# Target: Glucagon-like peptide 1 receptor (Homo sapiens) (UniProt P43220)
# Chain of UniProt P43220 (P43220 whole entry, looked up): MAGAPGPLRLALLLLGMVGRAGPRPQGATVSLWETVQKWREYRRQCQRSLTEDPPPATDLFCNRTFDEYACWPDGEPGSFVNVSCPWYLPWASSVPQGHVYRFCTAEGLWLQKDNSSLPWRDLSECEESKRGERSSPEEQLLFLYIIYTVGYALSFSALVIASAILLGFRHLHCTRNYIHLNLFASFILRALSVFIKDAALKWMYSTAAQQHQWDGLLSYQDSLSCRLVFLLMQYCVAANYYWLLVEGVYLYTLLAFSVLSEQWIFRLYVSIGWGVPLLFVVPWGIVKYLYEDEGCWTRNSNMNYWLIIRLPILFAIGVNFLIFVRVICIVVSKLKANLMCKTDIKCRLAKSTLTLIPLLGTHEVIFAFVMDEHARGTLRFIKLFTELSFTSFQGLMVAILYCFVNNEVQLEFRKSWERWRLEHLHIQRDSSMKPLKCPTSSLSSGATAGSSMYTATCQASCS
# Assay: qHTS of GLP-1 Receptor Inverse Agonists (Inhibition Mode); also: nearly all actives have a fitted effect of over 55% in size
# Details: HEK293 GLP-1R CRE-luciferase, luminescence, 24 h, GLP-1R form is constitutively active; activity change, negative = inhibition: at 38.3 µM (top of the series) unless noted
# Procedure, shortened: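 Using stably transfected HEK293 (constitutively active GLP-1R, cAMP-luciferase reporter), compounds were incubated 24 hr and luciferase measured by luminescence.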
# % is scaled to controls: 0 for no effect and ±100 for the full control effect; potency is read from the fitted curve at half-maximal effect; tags tell the direction and shape of the fitted curve.
Structure (SMILES),Potency,"activity change, negative = inhibition"
CC(NC(=O)NC(=O)c1ccc(Cl)cc1)c1ccccc1 (configuration not stated),"inconclusive: 28.2 µM [inhibitor, single point]",
Cc1ccc2cc(CN(c3ccccc3)S(=O)(=O)c3ccccc3)c(=O)[nH]c2c1,,inactive: 24.8%
COC(=O)CN(c1ccccc1)S(=O)(=O)c1cc(Br)ccc1OC,"inconclusive: 11.2 µM [inhibitor, single point]",
COc1ccc(NC(=O)CCS(=O)(=O)c2ccc3nc(C)sc3c2)cc1Cl,,inactive: -8.63%
Cc1cccc(N2C(=O)CC(NNc3nc4ccccc4s3)C2=O)c1 (configuration not stated),"inconclusive: 1 µM [inhibitor, full curve, poor fit]",
O=C(N/N=C/c1cc(Br)c(O)c(Br)c1O)c1ccc2c(c1)OCCO2,"inconclusive: 11.2 µM [inhibitor, partial curve, poor fit]",
Cc1ccc(-n2ncc(C(=O)NCCc3c[nH]c4ccccc34)c2C2CCN(C(=O)OC(C)(C)C)CC2)cc1C,active: 11.2 µM,
C=CCN(Cc1ccc(OC)c(OC)c1)C(=O)c1cc2cc(F)ccc2[nH]1,"inconclusive: 28.2 µM [inhibitor, single point]",
CCN(CC(=O)Nc1ccc2c(c1)OCCO2)C(=O)CC(NC(C)=O)c1ccccc1 (configuration not stated),,inactive: 3.76%
COc1ccc(NC(=O)C(Cc2ccccc2)n2cccc2)cc1OC (configuration not stated),"inconclusive: 28.2 µM [inhibitor, single point] and inconclusive: 11.2 µM [inhibitor, single point]",
O=[N+]([O-])c1cc(C(F)(F)F)cc([N+](=O)[O-])c1NCCCNc1ccc([N+](=O)[O-])c2cccnc12,"inconclusive: 7.94 µM [inhibitor, partial curve, poor fit]",
ClC(Cl)c1nnc(-c2ccccc2)c(-c2c[nH]c3ccccc23)n1,"inconclusive: 20 µM [inhibitor, single point]",
CCCCN(C(=O)C1CC(=O)N(Cc2ccc(C)cc2)C1)c1c(N)n(CCCC)c(=O)[nH]c1=O (configuration not stated),,inactive: 0.555%
COc1cccc(C2=CC(=O)CC(C)(C)C2)c1OC,,inactive: 5.22%
CC1(C)Cc2c(cnn2-c2cccc(F)c2)C(NC(=O)c2csnn2)C1 (configuration not stated),"inconclusive: 7.94 µM [inhibitor, partial curve]",
O=C(NCC1CC1)Nc1ccc(Cl)cc1,,inactive: 2.36%
O=C1CC(=C(c2ccccc2)c2ccccc2)C(=O)N1CCCN1CCN(c2cccc(Cl)c2)CC1,"inconclusive: 31.6 µM [inhibitor, partial curve, poor fit]",
COc1ccc(CCNC(=O)c2ccc(CNS(=O)(=O)c3cc(C)ccc3C)cc2)cc1OC,"inconclusive: 1.78 µM [inhibitor, partial curve, poor fit]",
Brc1ccc(/C=N/Nc2ccc3ccccc3n2)cc1,,inactive: -4.87%
O=C(CSc1ccccc1)Nc1ccc(-c2nc3ccccc3[nH]2)cc1,"inconclusive: 28.2 µM [inhibitor, single point]",
Cc1ccccc1C(=O)Nc1cc(-c2ccc(Cl)cc2)nn1-c1ccccc1,,inactive: 9.73%
COc1ccc(C(=O)N2CCCc3ccccc32)cc1,,inactive: 4.95%
Cc1ccc2c(c1)C(c1ccc(F)cc1)N(C(=O)c1ccc(OC(C)C)cc1)CC(=O)N2 (configuration not stated),"inconclusive: 11.2 µM [inhibitor, partial curve, poor fit]",

Structure (SMILES),Potency,"activity change, negative = inhibition"
Cc1cccc(N2CCN(C(=O)CCS(=O)(=O)c3ccc(Br)cc3)CC2C)c1 (configuration not stated),"inconclusive: 11.2 µM [inhibitor, partial curve, poor fit]",
CC(C)c1nnc(NC(=O)CCC(=O)N2CCN(C3CCCCC3)CC2)s1,,inactive: -0.158%
Cn1c(=O)[nH]c(=O)c2c1nc(N1CCNCC1)n2Cc1cccc2ccccc12,,inactive: 17.4%
O=C(O)c1ccccc1Nc1ccc([N+](=O)[O-])c2nonc12,,inactive: -7.69%
O=C(Nc1ccccc1-c1ccccc1)c1cccc(C(F)(F)F)c1,"inconclusive: 10 µM [inhibitor, single point]",
COc1ccc(N2CCN(CCCNC(=O)CC3Oc4ccc(C)cc4NC3=O)CC2)cc1 (configuration not stated),"inconclusive: 31.6 µM [inhibitor, single point]",
Cc1ccc(-n2nnc(C(=O)Nc3cc(F)ccc3F)c2C)cc1F,,inactive: 25.6%
Cc1ccc(C)c(OCC(=O)NNC(=O)CCN2CCN(c3ccccc3)CC2)c1,"inconclusive: 12.6 µM [inhibitor, partial curve]",
COc1cccc(/C=N/NC(N)=S)c1OCc1ccccc1Cl,active: 11.2 µM,
CCCS(=O)(=O)N1CCN(C(=O)c2ccc(-c3ccccc3)cc2)CC1,"inconclusive: 11.2 µM [inhibitor, single point]",
OC(c1ccccc1)(c1nc(-c2ccc3ccccc3c2)cs1)C(F)(F)F (configuration not stated),"inconclusive: 11.2 µM [inhibitor, single point]",
COc1ccccc1NC(=O)c1sc2nc3c(cc2c1N)CCCCCC3,"inconclusive: 2 µM [inhibitor, full curve]",
Fc1ccc(NC(=S)Nc2ccccc2N2CCOCC2)cc1Cl,,inactive: -9.64%
C#CCN(C[C@@H]1[C@@H](OC(=O)NC2CCCC2)[C@@H](OC(=O)NC2CCCC2)CN(C(=O)OC(C)C)N1C(=O)OC(C)C)S(=O)(=O)c1ccc(C)cc1,"inconclusive: 7.94 µM [inhibitor, partial curve, poor fit]",
CCCOC(=O)c1ccc(Oc2cn[nH]c2-c2ccc(OCC)cc2O)cc1,active: 10 µM,
O[C@@H]1CN(C2CCN(Cc3ccccc3)CC2)CC[C@H]1N1CCCCCC1,"inconclusive: 28.2 µM [inhibitor, single point]",
CCC1Sc2ccc(S(=O)(=O)CCC(=O)Nc3c(Cl)cc(OC)cc3OC)cc2NC1=O (configuration not stated),"inconclusive: 8.91 µM [inhibitor, partial curve, poor fit]",
CSc1ccc(CN(C)CC(=O)Nc2c(F)cccc2F)cc1,,inactive: -27%
CCC(c1nnnn1Cc1ccco1)N(CCc1ccccc1)Cc1cc2cc(C)ccc2[nH]c1=O (configuration not stated),"inconclusive: 12.6 µM [inhibitor, single point]",
Cc1ccc(Cl)cc1NC(=O)C(=O)NCC(c1cccnc1)N1CCc2ccccc21 (configuration not stated),"inconclusive: 6.31 µM [inhibitor, single point]",
CCCC(=O)Nc1ccc(Br)c(Cl)c1,"inconclusive: 28.2 µM [inhibitor, single point]",
CCc1ccc(-n2c(=O)c3c4c(sc3n(CC(=O)c3ccc(Cl)cc3)c2=O)CCC4)cc1,,inactive: -0.969%
COC(=O)[C@]12CCCCC=C1N(CCC1=CCCCC1)C(=O)[C@H](CC(=O)NCc1ccc(C)o1)C2,"inconclusive: 28.2 µM [inhibitor, single point]",

Structure (SMILES),Potency,"activity change, negative = inhibition"
CCN(CCCNS(=O)(=O)c1ccc2c(c1)CCN2C(C)=O)c1cccc(C)c1,"inconclusive: 28.2 µM [inhibitor, single point]",
CC(C)(C)C(=O)NCCc1csc2nc(-c3ccc(F)cc3)nn12,,inactive: -5.03%
C/C(=C\C(=O)c1ccccc1)NNc1nc2ccccc2s1,"inconclusive: 20 µM [inhibitor, single point]",
Cc1ccc(Cl)cc1N1CCN(CCNC(=O)Nc2ccccc2Cl)CC1,,inactive: -21.1%
COc1cc(NC(=O)c2nc(-c3ccncc3)no2)cc(OC)c1OC,,inactive: 5.36%
CCCS/C(N)=N/N=C/c1ccccc1O,"inconclusive: 7.94 µM [inhibitor, partial curve, poor fit]",
Cc1ccc(NC(=O)C(Cc2c[nH]c3ccccc23)NC(=O)OCC(C)C)cc1 (configuration not stated),"inconclusive: 12.6 µM [inhibitor, single point]",
COc1ccc(CCN2C(=O)CCC3=C2CCCC3=O)cc1OC,,inactive: 6.65%
COC(=O)c1nc2n(n1)C(c1cc(OC)ccc1OC)C(C(=O)Nc1ccc(C)cc1C)=C(C)N2 (configuration not stated),,inactive: 7.83%
COCCCNCCC(CCC(C)C)c1ccc2c(c1)OCO2 (configuration not stated),"inconclusive: 14.1 µM [inhibitor, partial curve, poor fit]",
Cc1c(Cl)cccc1-n1cnc(=O)c2ccccc21,"inconclusive: 10 µM [inhibitor, single point]",
CC1Cc2ccccc2N1C(=O)CN1CCN(S(=O)(=O)c2ccc3c(c2)OCCCO3)CC1 (configuration not stated),"inconclusive: 28.2 µM [inhibitor, single point]",
COc1ccc(-c2cn3cc(C(=O)NN)ccc3n2)cc1,"inconclusive: 8.91 µM [inhibitor, partial curve, poor fit]",
CCCc1ccc(C(=O)NC(=O)c2ccccc2O)cc1,"inconclusive: 11.2 µM [inhibitor, single point]",
O=C(NC1CC1)c1ccc2sc([C@H]3C[C@H](O)[C@@H](CO)O3)nc2c1,,inactive: 12.1%
Cc1cccc(NC(=S)N/N=C/c2ccc(Cl)c([N+](=O)[O-])c2)c1,,inactive: 0%
CC(Nc1cccc2ccccc12)C(=O)N/N=C/c1ccc([N+](=O)[O-])cc1 (configuration not stated),"inconclusive: 8.91 µM [inhibitor, partial curve, poor fit]",
Cc1ccc(Cn2nnc3c(=O)[nH]c(C4CCN(S(=O)(=O)c5cc(C)ccc5C)CC4)nc32)cc1,"inconclusive: 11.2 µM [inhibitor, partial curve, poor fit]",
Cc1cc(NC(=O)C2CCN(S(=O)(=O)c3ccc4[nH]c(=O)oc4c3)CC2)ccc1Br,"inconclusive: 28.2 µM [inhibitor, single point]",
CCCN(CC(=O)Nc1cc(C)on1)CC(=O)Nc1ccc(F)c(F)c1F,"inconclusive: 25.1 µM [inhibitor, single point]",
Cc1ccc(C(=O)/C=C/c2cn(CN3CCN(C)CC3)c3ccccc23)cc1,"inconclusive: 17.8 µM [inhibitor, single point]",

# Reference: PubChem BioAssay AID624417 (National Center for Advancing Translational Sciences (NCATS), 2012)
